In PubChem BioAssay AID488969 (Vanderbilt High Throughput Screening Facility, 2010):
Whole data set: some 110,000 compounds, median “z-score” near -0.1, cut for the highest 2% near 2. The list shows a part of the results. Calls of active or inactive are those of the source.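 Rule for the calls: active = z-score in the third read window above 3 or below -3; inactive = the rest.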

target: Metabotropic glutamate receptor 8 (Rattus norvegicus) (UniProt P70579); assay: rat mGluR8 modulators via GIRK flux, primary screen, cell-based, thallium flux, HTS (AID 488969); settings: HEK293 rat mGluR8, GIRK (G protein-gated inwardly rectifying potassium channel) thallium flux, FluoZin2; at 10 µM; stronger effect = higher value; submaximal glutamate (EC20) added with thallium
UniProt P70579, sequence (P70579 whole entry, looked up): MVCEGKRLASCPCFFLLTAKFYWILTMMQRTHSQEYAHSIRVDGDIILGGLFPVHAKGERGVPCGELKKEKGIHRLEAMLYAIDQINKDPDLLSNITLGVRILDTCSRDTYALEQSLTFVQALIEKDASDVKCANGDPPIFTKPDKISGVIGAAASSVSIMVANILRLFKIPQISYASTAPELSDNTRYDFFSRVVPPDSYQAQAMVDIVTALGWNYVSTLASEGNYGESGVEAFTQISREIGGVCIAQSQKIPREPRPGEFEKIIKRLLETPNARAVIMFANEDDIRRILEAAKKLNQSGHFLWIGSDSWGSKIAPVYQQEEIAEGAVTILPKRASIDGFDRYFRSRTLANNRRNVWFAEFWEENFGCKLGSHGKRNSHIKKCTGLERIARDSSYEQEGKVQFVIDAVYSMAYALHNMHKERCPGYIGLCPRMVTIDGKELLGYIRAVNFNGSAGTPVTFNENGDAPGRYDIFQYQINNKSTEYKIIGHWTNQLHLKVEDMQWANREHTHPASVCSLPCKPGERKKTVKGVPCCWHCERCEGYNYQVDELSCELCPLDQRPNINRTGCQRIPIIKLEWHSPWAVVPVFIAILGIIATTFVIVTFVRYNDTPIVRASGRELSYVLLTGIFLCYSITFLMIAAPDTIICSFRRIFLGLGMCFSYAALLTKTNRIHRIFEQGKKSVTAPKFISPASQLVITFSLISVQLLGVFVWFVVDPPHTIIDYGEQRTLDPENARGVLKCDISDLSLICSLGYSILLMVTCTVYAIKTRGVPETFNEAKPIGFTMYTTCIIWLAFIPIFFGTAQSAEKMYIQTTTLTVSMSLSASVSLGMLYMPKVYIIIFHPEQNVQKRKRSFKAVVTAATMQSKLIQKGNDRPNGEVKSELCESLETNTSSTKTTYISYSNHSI

| SMILES | z-score |
| --- | --- |
| COc1cc(C2NC(=S)NC3=C2CCc2ccccc23)cc(OC)c1OC (stereo not given) | -0.0137 |
| COc1ccccc1NC(=O)CC(NC1CCCCC1)C(=O)O (stereo not given) | -0.177 |
| Cc1ccc(S(=O)(=O)/N=C(\N)Nc2nc(C)c3ccc(C)cc3n2)cc1 | -0.382 |
| Nn1c(Cc2cccc3ccccc23)nnc1SCC(=O)N1CC(=O)Nc2ccccc21 | -0.0641 |
| CCc1ccc(OCC(=O)NC(NC(=S)Nc2ccccc2C)C(Cl)(Cl)Cl)cc1 (stereo not given) | -0.175 |
| CCOC(=O)c1ccccc1NC(=O)COC | -0.129 |
| O=C(O)c1ccc(-n2nnnc2SCc2ccccc2)cc1 | 0.283 |
| O=C(Cn1cnc2c(nnn2Cc2ccc(F)cc2)c1=O)NCc1ccc2c(c1)OCO2 | 0.623 |
| O=C(O)Cc1csc(Nc2cccc(Cl)c2)n1 | 0.819 |
| O=C(C1CCCN(CCCc2ccccc2)C1)N1CCCCC1 (stereo not given) | -0.0624 |
| O=C(NC(=S)Nc1ccc2oc(-c3cccnc3)nc2c1)c1cccc(Cl)c1 | 1.66 |
| COCCn1c(-c2ccccc2)cnc1SCC(=O)Nc1cccc2ccccc12 | 0.0344 |
| COc1ccc(OC)c(S(=O)(=O)NCc2csc(-c3ccccc3)n2)c1 | -0.245 |
| CCOC(=O)c1ccc(S(=O)(=O)N2CCN(CC3CC=CCC3)CC2)cc1 (stereo not given) | -0.563 |
| Cn1c(SCC(=O)Nc2nc3ccccc3s2)nnc1-c1ccccc1 | -0.0271 |
| COc1cc(Cl)cc2c1Sc1ccccc1/C2=C/CCN(C)C | active: 3.63 |
| Cc1[nH]n2c(=O)cc(C(C)(C)C)nc2c1-c1ccccc1 | active: 4.43 |
| CCOC(=O)Cn1nc(/C=C/c2ccc(OC)cc2)ccc1=O | 0.115 |
| Cc1ccc2c(c1)N(Cc1ccc3c(c1)OCO3)C(=O)C(C)O2 (stereo not given) | -0.813 |
| Cc1cc(C)n(-c2nc3ccccc3nc2NCCc2ccccc2)n1 | -0.16 |
| CC(NC(=O)C1CCCN(S(=O)(=O)c2cccc3nonc23)C1)c1ccccc1 (stereo not given) | -0.69 |
| COc1ccccc1C(=O)N(Cc1cccs1)C1CCS(=O)(=O)C1 (stereo not given) | 0.129 |
| Cc1ccccc1/C=C/c1nc2ccccc2c(=O)n1Cc1ccccc1 | 0.365 |
| O=C(/C=C/c1ccco1)NC(=S)Nc1cccc(-c2nc3ccccc3s2)c1 | -0.266 |
| Cc1ccc(C(=O)n2c(=S)nc3ccccn32)cc1 | 0.0286 |
| O=S(=O)(c1ccc(N2CCCC2)cc1)C(F)(F)F | -0.33 |
| CC(C)(C)N(Cc1ccccc1)C(=O)CSc1nnc(CNc2ccc(F)cc2)o1 | -0.349 |
| CC(C)C(=O)Nc1ccc(-c2nc3cccnc3o2)cc1 | 1.38 |

| SMILES | z-score |
| --- | --- |
| O=C(Nc1cc(C(F)(F)F)ccc1N1CCOCC1)c1cccs1 | 1.15 |
| O=[N+]([O-])c1ccc(O)c(-c2nn[nH]n2)c1 | -0.127 |
| Cc1ccc(-n2nnnc2C(Cl)(Cl)c2nnnn2-c2ccc(C)cc2)cc1 | -0.111 |
| CC(=O)NS(=O)(=O)c1cccnc1Nc1ccc(Cl)c(Cl)c1 | -0.949 |
| O=C1CCCC2=C1C(c1ccc(OS(=O)(=O)c3ccc(Cl)cc3)cc1)C1=C(CCCC1=O)O2 | -0.213 |
| CCOc1ccccc1Oc1coc2cc(OC)ccc2c1=O | -0.0933 |
| NS(=O)(=O)c1ccc(NC(=O)CSc2nc3ccccc3n2-c2ccccc2)cc1 | -0.079 |
| NC(=O)c1cccnc1Nc1ccccc1Cl | -0.423 |
| CCCCOc1cccc(OCCCC)c1C(=O)Nc1cc(C)on1 | -1.2 |
| O=C(COC(=O)c1ccccc1Nc1ccccc1)Nc1ccccc1 | -0.35 |
| CCSc1nnc(NC(=O)CCc2ccc(OC)cc2)s1 | -0.237 |
| CN(C)S(=O)(=O)c1ccc(C(=O)Nc2ccc(OCC(=O)N3CCOCC3)cc2)cc1 | 0.207 |
| CN(C)c1ccc(CNC2CC(C)(C)NC(C)(C)C2)cc1 | 1.82 |
| C=CCSc1nc2sc3c(c2c(=O)n1CC)CCc1ccccc1-3 | 2.62 |
| COc1ccccc1NC(=O)Cn1nnc(-c2ccccc2NC(=O)c2ccco2)n1 | -0.495 |
| Cc1ccc(SC(CC(=O)c2ccc(C)cc2)C(=O)O)cc1 (stereo not given) | -0.0628 |
| COC(=O)C(C)(C(=O)OC)c1ccccc1[N+](=O)[O-] | -0.103 |
| O=C(Nc1ncc(S(=O)(=O)c2ccc([N+](=O)[O-])cc2)s1)c1ccc2ccccc2c1 | -0.2 |
| COc1ccc(C(=O)Nc2ccccc2C(=O)NC(Cc2ccc(O)cc2)C(=O)NNC(=O)c2ccc(C)cc2)cc1 (stereo not given) | -0.296 |
| Cc1cc([N+](=O)[O-])ccc1NCc1cccc([N+](=O)[O-])c1 | 0.367 |
| CCCCn1c(SCC(=O)Nc2cc(C)on2)nc2c1c(=O)n(C)c(=O)n2C | -0.247 |
| OC(CNCc1ccc(F)cc1)(c1ccc(F)cc1)c1ccc(F)cc1 | 0.187 |
| Nc1c(-c2ccc(Cl)cc2)cnc2ncnn12 | -0.169 |
| O=C(OCCN1CCCCC1)c1ccc(O)cc1 | -0.24 |
| CCCCNc1c2c(nc3c(-c4ccccc4)c(C)nn13)CCC2 | -0.294 |
| COC(=O)CCCC(=O)Nc1c(F)c(F)c(F)c(F)c1F | 0.502 |
| CC(=O)c1c(C)n(-c2ccc(N(C)C)cc2)c2ccc(OCC(N)=O)cc12 | -0.403 |
